# Test results published in the supplement of paper PMC10338343.
# ± gives the standard deviation. The list shows a part of the results, in another mix than the full data.
# Tested on: MIWI (PIWIL1) piRISC loaded with L1MC piRNA (30 nt)
# Assay: pre-steady-state target cleavage rate (min^-1); MIWI and MILI are mouse PIWI proteins and EfPiwi is from a freshwater sponge; tags in brackets are library labels; higher = faster piRNA-guided slicing of the target
# Details: guide: L1MC piRNA 5'p-UAACUAAAUACUAUGCAAGCUGUAGGUCCU; auxiliary factor: 500 nM mouse GTSF1
# Protocol: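 Cleave-'n-Seq: a library of target RNAs (target site embedded in constant flanks, ACAGCATTCCGCGTTAGTGATATCCG... 5' flank; DNA-blocked outside the site) at 0.1 nM was incubated with 1 nM active mouse MILI or MIWI piRISC (synthetic 5'-monophosphorylated piRNA guide) with or without 500 nM mouse GTSF1 at 33 °C for 1 min to 16 h. Uncleaved targets were sequenced and normalised to non-target controls, and the pooled three trials were fitted to a burst-and-steady-state model to give the pre-steady-state cleavage rate (min^-1; k3 is constrained to at most 1e-4). Sequence is the target site only; target names encode pairing extent (gX:gY) and contiguous / 1-mismatch / 2-mismatch / bulge geometry. Fits with R² ≤ 0 are excluded.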
row,Sequence,pre-steady-state target cleavage rate
1,UCGACCUACAGCUUGCAUUGUAUUUAGUAA,0.589 ± 0.026
2,UCCUGGAACAGCUUGCAUAGUAUAUAGUUA,0.662 ± 0.044
3,UCCUGGAUCAGCUUGCAUAGUAUAAUGUAA,0.0855 ± 0.016
4,UCGACCUAGAGCUAGCAUAGUAUUUAGUUA,1.11 ± 0.052
5,UGGACCUCAGCUUGCAUAGUAUUUAGUUA,1.43 ± 0.094
6,UGGACCUACAGCUUGCAUUCUAUUUAGAAA,0.0175 ± 0.006
7,UGGACCUUCAGCUUGCAUAGUAUUUUGUUA,1.02 ± 0.058
8,AGGACGUACAGCUUGCAUAGUAUUAAGUUA,0.713 ± 0.089
9,UCGACCUACAGCUUGCAAAGAAUUUAGUUA,0.303 ± 0.021
10,UCCUGGAUCACCAUGCAUAGUAUUUAGUUA,0.0303 ± 0.0068
11,UCCUGCUACAGGAUGCAUAGUAUUUAGUUA,1.02 ± 0.067
12,AGGACCUACAGCUUGCAAAGUAUUUUCAAA,0.291 ± 0.042
13,UGGACCUACAGCUUGCAUAGUAUUUAGCUA,0.0122 ± 0.0041
14,UCCUGGAUCAGCUUGCAUAGUAUUUAGUAA,0.96 ± 0.047
15,UCCUGGAUCAGCUUGCAUAGUAUUUAGAUA,0.33 ± 0.025
16,UCCUCCUACAGCUUGCAUAGUAUUUAGAUA,0.42 ± 0.045
17,AGGACCUACAGCAUGCAUAGUAAUUAGUUA,0.788 ± 0.053
18,UCCUGCUACAGCGUUGCAUAGUAUUUAGUUA,1.09 ± 0.067
19,UCCUGCUACUGCUUGCAUAGUAUUUAGUAA,0.182 ± 0.03
20,UCCUCCUACAGCUUGCAUAGUUAAUAGUUA,0.116 ± 0.019
21,UCCUGGAUGAGCUUGCAUAUUAUUUAGUUA,0.824 ± 0.058

# Same assay, conditions: guide: L1MC piRNA 5'p-UAACUAAAUACUAUGCAAGCUGUAGGUCCU; auxiliary factor: none (no GTSF1)
row,Sequence,pre-steady-state target cleavage rate
1,UCGACCUACAGCUUGCAUUGUAUUUAGUAA,0.0191 ± 0.0048
2,UCCUGGAACAGCUUGCAUAGUAUAUAGUUA,0.0357 ± 0.0083
3,UCCUGGAUCAGCUUGCAUAGUAUAAUGUAA,0.00393 ± 0.0033
4,UCGACCUAGAGCUAGCAUAGUAUUUAGUUA,0.0171 ± 0.0037
5,UGGACCUCAGCUUGCAUAGUAUUUAGUUA,0.055 ± 0.011
6,UGGACCUUCAGCUUGCAUAGUAUUUUGUUA,0.05 ± 0.0093
7,AGGACGUACAGCUUGCAUAGUAUUAAGUUA,0.0343 ± 0.007
8,UCGACCUACAGCUUGCAAAGAAUUUAGUUA,0.00797 ± 0.0031
9,UCCUGCUACAGGAUGCAUAGUAUUUAGUUA,0.00727 ± 0.0014
10,AGGACCUACAGCUUGCAAAGUAUUUUCAAA,0.00479 ± 0.0021
11,UGGACCUACAGCUUGCAUAGUAUUUAGCUA,0.00548 ± 0.002
12,UCCUGGAUCAGCUUGCAUAGUAUUUAGUAA,0.0287 ± 0.0064
13,UCCUGGAUCAGCUUGCAUAGUAUUUAGAUA,0.0179 ± 0.0048
14,UCCUCCUACAGCUUGCAUAGUAUUUAGAUA,0.0188 ± 0.0053
15,AGGACCUACAGCAUGCAUAGUAAUUAGUUA,0.0148 ± 0.0027
16,UCCUGCUACAGCGUUGCAUAGUAUUUAGUUA,0.0216 ± 0.0041
17,UCCUGCUACUGCUUGCAUAGUAUUUAGUAA,0.00963 ± 0.0018
18,UCCUCCUACAGCUUGCAUAGUUAAUAGUUA,0.00705 ± 0.0018
19,UCCUGGAUGAGCUUGCAUAUUAUUUAGUUA,0.0317 ± 0.0088
